Values marked as one replicate rest on one cluster of the flow cell; about a third of the high ones do not repeat.
Tested on: ATP
Assay: switch fluorescence ratio, 500 uM ATP over buffer (Cy3 cluster intensity, sum of 5 cycles each) (fold (ratio)); higher = stronger signal-on switching upon ATP binding; sequences stand for … in TCGTCGGCAGCGTCAGATGTGTATAAGAGACAGTTTTTTTTTTTTTTTTTTTTTTTTT…TC
Settings: aptamer strand: ATP DNA aptamer (quencher-CACCTGGGGGAGTATTGCGGAGGAAGG + anchor), 100 nM annealed; ATP concentration: 500 uM; one replicate
Method in brief: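 Clusters carrying Cy3-labelled switching strands on a modified Illumina MiSeq flow-cell were annealed to 100 nM quencher-labelled ATP aptamer and imaged in selection buffer. They were imaged again after 15 min with 500 uM ATP at 22 °C, over five buffer/ATP cycles with NaOH stripping and re-annealing in between. For each cluster, the fluorescence ratio is the summed Cy3 intensity of the target cycles divided by that of the buffer cycles, averaged per switch-domain sequence. Clusters outside 100-1000 RFU were left out.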
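Note: ATP exposure 15 min at 22 °C before imaging.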

| Sequence | switch fluorescence ratio |
| --- | --- |
| CAGGATTTGT | 0.988 |
| TTGAGTTGA | 1.03 |
| AAGGCCTGGT | 1 |
| AAAGGCCAAC | 1.13 |
| CACTGAGGAC | 0.938 |
| ACCCACGGAA | 1.42 |
| CGGGCTCTAG | 0.984 |
| GTCCACACAA | 1 |
| GTGTTGGC | 1.03 |
| TACGACATTG | 1.03 |
| ACCGTGACGG | 0.98 |
| GCGTAATTCG | 1.02 |
| GTAAGTCTAA | 1.03 |
| GTGTCAGGG | 0.999 |
| GAACTAGCAG | 0.978 |
| TCTTCATATA | 0.992 |
| GTTAAGTTTG | 1.01 |
| CCTGATAACT | 0.992 |
| TCGGTAGTCC | 1.02 |
| TGCCACCGAT | 1.04 |
| CGCTCTATTA | 1.03 |
| TTACCGGGGA | 0.99 |
| ATGATTGCTT | 1.03 |

| Sequence | switch fluorescence ratio |
| --- | --- |
| GGATTGCTGG | 0.978 |
| TGTTGGGAGC | 0.974 |
| ACGCTTCTAT | 0.998 |
| ATGGGAGGCA | 0.989 |
| CACTCGGGGC | 1.03 |
| AGTTAAATCG | 1.02 |
| CGGTATCTC | 1.05 |
| CACTTAGGC | 1.1 |
| AGCCCTGCCG | 0.989 |
| ATGACTCTTG | 1.04 |
| GTGGGGTTCG | 0.971 |
| TCCTGCATAG | 2.13 |
| CGCCGGTCGG | 1.01 |
| TAAGCCAACT | 0.972 |
| AGGACATCTG | 0.922 |
| CAGAGTAGGC | 0.952 |
| TTCTCAGTTA | 0.982 |
| CTCCATTGAC | 2.23 |
| TGGATATTAA | 0.976 |
| CGTAGGGTGG | 0.997 |
| GGCTTCATTG | 1 |
| CCTTGATGCG | 0.987 |
| GTTAGAGCCC | 0.963 |

| Sequence | switch fluorescence ratio |
| --- | --- |
| AGTAAGTCGT | 0.978 |
| TCAGCGGGGT | 1.15 |
| GCCCCTCGAT | 1.05 |
| CTAGCGTTGA | 1.03 |
| ACCCTATGAC | 1.04 |
| ATCGGTTTTC | 1.07 |
| TTGAAAACGG | 0.994 |
| GCGCGACGTC | 1.01 |
| CGTTAAAAT | 0.978 |
| TAATGCGCTT | 1.01 |
| TAGGGCGC | 1 |
| GCTTTATCTT | 0.977 |
| AGCGTTAATA | 0.953 |
| ACGGTAGAGC | 1.01 |
| CGCTGTGGCA | 0.996 |
| CATTTATGGC | 1.06 |
| GCACCTAGAT | 1.04 |
| CGGAGGAAGT | 1.01 |
| ACTGCCTCGG | 1.27 |
| GCGTATGAG | 0.95 |
| ACCGCGAAGC | 1.1 |
| GCGCTCCGAT | 1.24 |
| ACAGTCTATA | 0.993 |

| Sequence | switch fluorescence ratio |
| --- | --- |
| GCGCCTTGTT | 1.03 |
| TAAGGTCAAG | 0.981 |
| CGGGGCCGTC | 0.925 |
| GTTACTCTC | 0.977 |
| ATAGAGGTTT | 0.987 |
| GTTAAACTCG | 1.05 |
| TACAGCCCAT | 1.05 |
| ACATGCGGTT | 1.05 |
| CGGTCACATC | 1.04 |
| ATCAGTGGGT | 1.01 |
| GGGTGGAACG | 1.01 |
| TCGTCATAAT | 1.02 |
| TTGCGCCCGT | 1.06 |
| TAACCACACG | 1.4 |
| CCCAACGAAT | 1.01 |
| TTTAGGAGT | 1.02 |
| AAATGCATAG | 1.01 |
| AAGTGTACTT | 1.02 |
| TGAATGTACC | 1.04 |
| GAACAATCGC | 1.16 |
| GACCGGGGGT | 2.67 |
| CAAAAGCCGG | 0.999 |
| TTCCCAGCCT | 1.12 |

| Sequence | switch fluorescence ratio |
| --- | --- |
| ATATGGAACT | 1.05 |
| TCTTATAGCC | 0.986 |
| CCATAGGTCG | 0.923 |
| GATTAATAAC | 0.996 |
| TTAAGAAACT | 1.04 |
| CAGCCGCCTA | 1.45 |
| AAGTATAGCG | 0.907 |
| CATGAGAGCG | 0.978 |
| TCTGTAGGT | 0.975 |
| ATTATTATGA | 0.987 |
| GAAAAGTAGA | 1.02 |
| GGACCATTCG | 1.01 |
| TTATGAAT | 0.96 |
| CAGCAGTCCT | 1.13 |
| CCAGTGACAG | 1.1 |
| GCATTCAGAA | 0.976 |
| TGATTGTTA | 0.964 |
| TGGCTGGCGA | 1.04 |
| AATCGAATT | 1 |
| ATTAATGGTG | 1.03 |
| GGTGCGAATA | 1.13 |
| AGGTGGTTCG | 0.994 |
| GGTTATTCGC | 0.994 |

| Sequence | switch fluorescence ratio |
| --- | --- |
| GATGTAAATC | 0.963 |
| ACAGGCCGG | 0.921 |
| GAGGCTACGG | 1 |
| GAAGTCAAAT | 1 |
| AGTATAGTAC | 1.07 |
| TTAATCGCCA | 1.11 |
| GACAATTAAT | 0.963 |
| GTGAGGTGGC | 1.1 |
| AGTCGCCACG | 0.986 |
| TAGCCAGTAT | 1.14 |
| CGGTACTAAT | 1.03 |
| CGGGTAGTGT | 1.04 |
| GCCATGAGGT | 1.01 |
| TACCCTAATT | 1.06 |
| ATATATACC | 1.05 |
| AACCGGCCTA | 1.21 |
| TGGGAGCATT | 1.03 |
| ACAACCAACA | 1.07 |
| TATAGCTTAT | 1.05 |
| CTTAAAGGCG | 0.949 |
| CAACCGTCCT | 1.26 |
| GGTTTTAAGG | 0.957 |
| ACGGAGTTTA | 1.07 |

| Sequence | switch fluorescence ratio |
| --- | --- |
| GGGAGAGCCG | 1.09 |
| GGACAAAGAT | 0.981 |
| CTTAGCTCAT | 1.07 |
| CAAAGAGGCT | 1.04 |
| GTTAATATCG | 1.01 |
| GAACGGGACG | 1.05 |
| CTACATACTA | 1.38 |
| TATTTAATAC | 1.14 |
| CGAACGTAGC | 1.58 |
| GTAAGTTTGC | 1 |
| GCACTACATT | 1.06 |
| CGGGGGATAT | 1.06 |
| CCAAGATTCC | 1.23 |
| CAGGAAAGTA | 0.988 |
| CTGGCCACAC | 1.03 |
| CTCAGCGAAT | 2.38 |
| TCTTACCTTT | 1.05 |
| AAACCTGTT | 1.06 |
| TATATTCGGA | 1.02 |
